According to PubChem BioAssay AID485360 (National Center for Advancing Translational Sciences (NCATS), 2010):
Hit rate of the full screen: of about 230,000 compounds, about 1,500 (0.65%) were called active. Inconclusive results, whose numbers are uncertain, are shown with a selection of clear calls. Calls come from the whole dose curve; as a rule, active = well fitted inhibition curve with a large enough effect; inconclusive = small, poorly fitted or top-dose-only effect; inactive = no such curve, though single readings can be large or run the other way. Potencies beside an inconclusive call are fits to weak or partial responses and may not hold up.

Biological target: Lethal(3)malignant brain tumor-like protein 1 (Homo sapiens) (UniProt Q9Y468)
Assay: qHTS Assay for the Inhibitors of L3MBTL1; note: nearly all actives have a fitted effect of over 60% in size
Settings: AlphaScreen L3MBTL1–H3K9me1 peptide binding; series mostly up to 57.1 µM
Outline: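 First, the protein-peptide complex forms for 30 min at room temperature (L3MBTL1 50 nM, biotinylated H3K9me1 peptide 75 nM). Next, compounds are pin-transferred and incubated 30 min. Finally, AlphaScreen beads are added and read after 30 min.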
Potency is the fitted concentration of half-maximal effect; tags give direction and shape of the fitted curve.

UniProt Q9Y468, sequence (Q9Y468 whole entry, looked up): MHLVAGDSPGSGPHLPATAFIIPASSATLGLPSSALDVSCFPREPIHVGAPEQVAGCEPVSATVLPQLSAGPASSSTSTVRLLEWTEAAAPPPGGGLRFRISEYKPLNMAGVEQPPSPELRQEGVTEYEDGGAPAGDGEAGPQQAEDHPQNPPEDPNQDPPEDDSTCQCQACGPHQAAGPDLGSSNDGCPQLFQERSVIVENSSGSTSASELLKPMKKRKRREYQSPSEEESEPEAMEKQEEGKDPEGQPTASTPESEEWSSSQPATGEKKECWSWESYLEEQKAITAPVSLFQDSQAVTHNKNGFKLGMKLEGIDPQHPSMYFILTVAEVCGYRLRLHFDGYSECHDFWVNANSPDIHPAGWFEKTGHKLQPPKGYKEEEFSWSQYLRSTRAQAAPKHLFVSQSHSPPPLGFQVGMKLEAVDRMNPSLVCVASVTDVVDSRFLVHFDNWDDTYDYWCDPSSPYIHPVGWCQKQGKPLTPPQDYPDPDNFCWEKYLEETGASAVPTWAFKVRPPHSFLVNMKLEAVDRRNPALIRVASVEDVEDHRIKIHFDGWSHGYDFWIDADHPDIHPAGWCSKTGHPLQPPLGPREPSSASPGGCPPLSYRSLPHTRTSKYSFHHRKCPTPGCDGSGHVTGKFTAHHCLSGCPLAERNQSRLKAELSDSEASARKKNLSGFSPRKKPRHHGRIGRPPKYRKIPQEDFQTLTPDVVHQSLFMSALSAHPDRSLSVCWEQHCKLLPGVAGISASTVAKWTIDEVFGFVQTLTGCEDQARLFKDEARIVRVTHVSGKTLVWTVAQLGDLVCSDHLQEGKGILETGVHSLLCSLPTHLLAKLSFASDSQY

Question: How did the Potency turn out when `O=[N+]([O-])c1cccc(CSc2ncnc3ccccc23)c1` was run?
Answer: inconclusive: 20 µM [inhibitor, partial curve]

Question: Which Potency does the source give for `Cc1ccc(S(=O)(=O)N(C)c2ccc(OCC(=O)Nc3ccc(C(=O)N(C)C)cc3)cc2)cc1C` here?
Answer: inactive

Question: `O=C(COC(=O)c1cc(S(=O)(=O)N2CCCCC2)ccc1N1CCOCC1)NCCc1ccc(F)cc1` was tested. Which Potency did it give?
Answer: inconclusive: 39.8 µM [inhibitor, single point]

Question: With `O=C(NNc1ccc(O)cc1)c1ccc(Br)cc1` as the compound, how does the Potency read?
Answer: inconclusive: 35.5 µM [inhibitor, partial curve]

Question: How did the Potency turn out when `Cc1ccc(NC(=O)CN(C)C(=O)c2cccc(-n3cccc3)c2)cc1` was run?
Answer: active: 3.98 µM

Question: How did the Potency turn out when `CCC1CCCCN1CCNS(=O)(=O)c1ccc2c(c1)oc(=O)n2C` (configuration not stated) was run?
Answer: inconclusive: 39.8 µM [inhibitor, single point]

Question: For `O=C(C1CCN(S(=O)(=O)c2cccc3cccnc23)CC1)N1CCN(c2ccc(Cl)cc2)CC1`, which Potency is on record?
Answer: inactive

Question: With `Cc1cc(=O)n(CCc2ccccc2)c(O)c1C#N` as the compound, how does the Potency read?
Answer: inactive

Question: How did the Potency turn out when `Cc1cn(C2OC(COC(=O)c3ccccc3)C(O)C2Cl)c(=O)[nH]c1=O` (configuration not stated) was run?
Answer: inactive

Question: `CC(C(=O)Nc1ccc2[nH]c(=O)[nH]c2c1)N1CCN(Cc2ccc3c(c2)OCO3)CC1` (configuration not stated) was tested. Which Potency did it give?
Answer: inactive

Question: With `Cn1nc(C(=O)OCC(=O)Nc2ccc(S(N)(=O)=O)cc2)c2ccccc2c1=O` as the compound, how does the Potency read?
Answer: inconclusive: 100 µM [inhibitor, partial curve]

Question: Which Potency does the source give for `CCOc1ccc(N=Cc2c(C)[nH]n(-c3nc4ccccc4[nH]3)c2=O)cc1` here?
Answer: inactive

Question: `CCOC(=O)CC1C(=O)NCCN1c1nc2c(C)cccn2c(=O)c1/C=C1\SC(=S)N(C(C)CC)C1=O` (configuration not stated) was tested. Which Potency did it give?
Answer: inconclusive: 31.6 µM [inhibitor, single point]

Question: How did the Potency turn out when `CCOC(=O)c1c(N)sc(=S)c2c1CCC2` was run?
Answer: inconclusive: 39.8 µM [inhibitor, single point]

Question: With `COCCN1C(=O)C(=O)/C(=C(/O)c2ccc(S(=O)(=O)N3CCOCC3)cc2)C1c1ccc(O)cc1` (configuration not stated) as the compound, how does the Potency read?
Answer: inactive

Question: `CC1=CS(=O)(=O)CC1Sc1nc(C)n[nH]1` (configuration not stated) was tested. Which Potency did it give?
Answer: inconclusive: 0.794 µM [inhibitor, single point]

Question: How did the Potency turn out when `CN(O)/C=c1/ccc2c(n1)C(=O)C=CC=2` was run?
Answer: active: 20 µM

Question: How did the Potency turn out when `CC1CN(C(=O)CCC(=O)NCc2ccccn2)c2ccccc2O1` (configuration not stated) was run?
Answer: inactive

Question: Which Potency does the source give for `Cc1ccc(C2/C(=C(/O)c3ccc(Br)cc3)C(=O)C(=O)N2Cc2ccco2)o1` (configuration not stated) here?
Answer: inconclusive: 28.2 µM [inhibitor, single point]

Question: For `c1ccc2c(Nc3ccc4c(c3)OCCO4)c3c(nc2c1)CCC3`, which Potency is on record?
Answer: inconclusive: 31.6 µM [inhibitor, single point]

Question: How did the Potency turn out when `ON=C1/C(=N\O)CC2(C/C1=N/O)OCCO2` was run?
Answer: inconclusive: 39.8 µM [inhibitor, single point]

Question: Which Potency does the source give for `COc1cccc(C(=O)N(Cc2nc(-c3ccc(C)cc3)no2)C(C)C)c1` here?
Answer: inconclusive: 6.31 µM [inhibitor, single point]

Question: With `FC(F)(F)c1cc(CCN2CCNC[C@H]2Cc2cccc3ccccc23)cc(C(F)(F)F)c1` as the compound, how does the Potency read?
Answer: inactive

Question: How did the Potency turn out when `CCN(CC(=O)Nc1ccc(NC(C)=O)cc1)C(=O)/C=C/c1cn(Cc2ccccc2)nc1-c1cccnc1` was run?
Answer: inactive

Question: Which Potency does the source give for `CCOC(=O)Cc1csc(NC(=O)CSc2nnc(Cc3csc(N)n3)n2C)n1` here?
Answer: inconclusive: 1.58 µM [inhibitor, single point]

Question: With `O=C(O)Cn1nnnc1-c1ccc(F)cc1` as the compound, how does the Potency read?
Answer: inactive

Question: Which Potency does the source give for `N#Cc1nc(COc2ccc(Br)cc2)oc1N1CCN(Cc2ccccc2)CC1` here?
Answer: inconclusive: 15.8 µM [inhibitor, partial curve]

Question: With `Cc1ccc(-n2c(-c3ccccc3)c[n+]3c2CCc2ccccc2-3)c(C)c1` as the compound, how does the Potency read?
Answer: inactive

Question: For `N#CCC(=O)Nc1ccc(C(=O)OCC(=O)N2CCN(C(=O)c3ccco3)CC2)cc1`, which Potency is on record?
Answer: inconclusive: 20 µM [inhibitor, partial curve, poor fit]

Question: Which Potency does the source give for `O=C(/C=C/c1ccccc1F)c1ccoc1` here?
Answer: inactive

Question: For `O=C(O)c1ccc2nc(-c3ccco3)c(-c3ccco3)nc2c1`, which Potency is on record?
Answer: active: 2.24 µM

Question: For `CC1(C)Cc2noc(N)c2C(C)(C)N1O`, which Potency is on record?
Answer: inconclusive: 7.08 µM [inhibitor, single point]

Question: With `CCOC(=O)c1n[nH]n(-c2cc(Cl)cc(Cl)c2)c1=O` as the compound, how does the Potency read?
Answer: inconclusive: 6.31 µM [inhibitor, single point]

Question: `Cc1ccccc1NC(=O)Nc1cccs1` was tested. Which Potency did it give?
Answer: inconclusive: 4.47 µM [inhibitor, single point]

Question: For `CC1=C(C(=O)OCc2ccccc2)C(/C=C/c2ccccc2)NC(=S)N1` (configuration not stated), which Potency is on record?
Answer: inconclusive: 6.31 µM [inhibitor, single point]

Question: `Cc1ccc(NC(=O)CSc2nnc(Cn3c(=O)sc4ccccc43)n2C)cc1Cl` was tested. Which Potency did it give?
Answer: inconclusive: 3.98 µM [inhibitor, single point]

Question: How did the Potency turn out when `Cc1ccc(Nc2ccc(S(=O)(=O)N3CCOCC3)cc2[N+](=O)[O-])c(C)c1` was run?
Answer: inconclusive: 35.5 µM [inhibitor, partial curve]

Question: For `Cc1ccc(-c2nc3c(c(SCC(=O)Nc4cccc(C(=O)O)c4)n2)Cc2cccc(C)c2O3)cc1`, which Potency is on record?
Answer: active: 5.62 µM

Question: How did the Potency turn out when `COc1ccc2c(c1OC)CN1CCc3cc4c(cc3[C@@H]1[C@@H]2O)OCO4` was run?
Answer: inactive

Question: `CC1(C)CC(=O)N(Cc2ccccc2)C(=O)C1` was tested. Which Potency did it give?
Answer: inactive

Question: Which Potency does the source give for `CC1CCCC(C)N1C(=O)COC(=O)CNC(=O)c1ccccc1` (configuration not stated) here?
Answer: inactive

Question: For `CCN1CCCC1CNC(=O)Cn1cnc2sc(C)c(S(=O)(=O)N3CCC(C)CC3)c2c1=O` (configuration not stated), which Potency is on record?
Answer: inconclusive: 8.91 µM [inhibitor, full curve, poor fit]

Question: With `CC(=O)NNc1nc(-c2ccc(NC(C)=O)cc2)cs1` as the compound, how does the Potency read?
Answer: inactive

Question: With `CC(C)CNC1=CC(=O)CC(c2ccco2)C1` (configuration not stated) as the compound, how does the Potency read?
Answer: inconclusive: 35.5 µM [inhibitor, single point]

Question: How did the Potency turn out when `Cc1ccc(SC2=C(Sc3ccc(C)cc3)C(=O)c3ccccc3C2=O)cc1` was run?
Answer: inconclusive: 6.31 µM [inhibitor, partial curve]

Question: Which Potency does the source give for `O=C(O)CC1CCCC(c2ccccc2)C1=O` (configuration not stated) here?
Answer: inconclusive: 4.47 µM [inhibitor, single point]

Question: How did the Potency turn out when `CCc1ccc(N2CC(C(=O)OCc3nc4ccsc4c(=O)[nH]3)CC2=O)cc1` (configuration not stated) was run?
Answer: inconclusive: 31.6 µM [inhibitor, single point]
